The supplement of paper PMC3334620
Whole data set: some 33,000 sequences, median “E-score (-0.5 to 0.5)” near -0.01, cut for the highest 2% near 0.26. This is one part of the list.

biological target: Ste12 (UniProt P13574); assay: PBM E-score (8-mer binding enrichment) (E-score (-0.5 to 0.5)); higher = stronger / more preferred TF binding; most listed sequences are background and not binding sites; settings: protein concentration: 200 nM; construct: GST-DNA-binding domain
Experimental: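 Universal 'all 10-mer' protein binding microarrays (Agilent AMADID 015681) probed with GST-tagged S. cerevisiae TFs (full-length or DBD) made by in vitro transcription/translation (PURExpress), about 100-200 nM. Bound TF was detected with fluorescent anti-GST. Each ungapped 8-mer (which stands for itself and its reverse complement) is scored by the PBM enrichment score (E-score), a modified Wilcoxon-Mann-Whitney statistic from -0.5 to +0.5, computed with the Universal PBM Analysis Suite. Scale: above 0.35 generally sequence-specific binding.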

Sequence | PBM E-score
ACGCTTCA | -0.0125
GATTCAGA | 0.142
CCCTACAG | -0.279
AAACCCGT | 0.0403
CCGGCTTA | 0.0604
GAGTCTAC | -0.18
CAGGGGGA | -0.17
ATGTTGAC | 0.114
CTATGCTA | -0.0922
ATATCGAT | 0.0627
AAAGCTTC | 0.0401
GCTTCCCA | -0.132
CTATCAAC | 0.0593
TTAATGAA | 0.206
GGACATCC | -0.16
ACAGCAGA | -0.145
CCAAAGGG | -0.0366
CCTTGCGC | 0.00608
CCTACACG | -0.101
AAGTTAAC | -0.0624
CGTATGTC | -0.159
ACTATCTC | -0.00928
CCAATCCC | 0.104
CAACTCTC | -0.0865
ATAAATTA | 0.255

Sequence | PBM E-score
GTTGACGA | -0.186
CACCATAC | -0.00648
ACCAGTCA | -0.0556
CAAATTTG | 0.103
TACACCCA | 0.0751
GGCGTTTA | 0.168
GTTTACTA | 0.116
CAGTGCAA | -0.0547
GTTTCTAA | 0.249
CGTTGGCC | -0.128
ACCCTGTA | -0.00248
AAGGCTAG | -0.0508
CAGAGGGG | -0.198
CTCTATTA | 0.0578
ACTGTACT | -0.145
ATAATAGG | -0.0375
ATCATGTC | 0.0261
GTTACACA | 0.25
AGGGTTCA | -0.131
CGTTACAG | 0.146
CCAACAAG | -0.021
AGTGGTCC | -0.272
CCTGGTAC | -0.0643
GTAATGTA | 0.107
CTATTTTA | 0.232

Sequence | PBM E-score
ATCGTTAA | 0.112
ACGAAGAT | 0.0462
ACACTGTC | -0.0374
CGCATAGC | -0.255
AAGCACTC | -0.0994
GCGGAGCA | 0.0183
AATTTCAC | 0.11
ACTCGTCT | 0.0783
ACATCTTA | -0.0589
GAGTGAGC | -0.0395
GGGAACAA | 0.108
CGAGGGAA | 0.101
CTATTGGC | -0.1
AGTCCGCG | -0.148
AAGGTCAG | -0.104
CGGGTTAG | -0.209
AATTGAGC | -0.0246
CCAACTCC | 0.171
CCCACGAC | -0.211
TCGGGGAA | 0.0651
AAGCAAAC | 0.129
AAGCTTCT | -0.128
AGTTTTCA | 0.0833
AGGATGGG | -0.0868
CACAAGAA | 0.219

Sequence | PBM E-score
ATAGTGTA | 0.207
GGGATACC | -0.0812
TGTCTGAA | 0.251
GATACCAC | 0.0479
ACGAGCTC | 0.00975
CATAGCAG | -0.255
GGTCGACA | -0.215
AGATATAG | 0.176
AGGTCTAG | -0.203
ACGCGAGT | 0.103
AACGTACC | -0.175
AGCAAGGG | -0.041
GAGCCGGA | -0.0206
AAAGAACG | 0.00966
CTTTGTAA | 0.152
ACGGACAG | -0.249
ACCATTCC | 0.0233
CAATGAAA | 0.258
AACTCAGC | 0.109
CGTAGGGA | -0.207
AACATTGC | 0.0224
CCTCCCCA | 0.329
AGTAACCG | 0.0632
CGTTGGAA | 0.0184
CTCAGAGA | 0.0726

Sequence | PBM E-score
TGGTTAAA | 0.216
ACTTTCCA | 0.12
CATTTAGA | 0.149
TATGCATA | -0.091
GTCATCCA | -0.0274
ATTCGGCC | 0.0174
GGGATTAC | -0.141
GAAGTGCC | -0.0365
AATGGCCG | -0.19
ATATCGTG | -0.106
AAGGAACA | -0.199
CTCTCGTC | -0.0536
CGCACATC | -0.0717
ATTGGGAC | 0.176
ACACTGCC | 0.0443
CTCACGGA | -0.226
ATTGTATC | 0.132
ATCAACCG | -0.0497
CCCCAGGC | -0.139
ACAGAGGG | -0.0853
CCTCTACC | -0.0701
ACCTTTCT | 0.0213
ATAAATGC | 0.136
CTTGTGCC | 0.00807
ATAATTAT | 0.195

Sequence | PBM E-score
ATGCTTTG | -0.0044
AGGACCCT | -0.182
CGTAAAAA | 0.126
AGACACAA | 0.0527
GTGAATAA | 0.12
AGTATGGA | 0.0771
AGCCCGTG | -0.193
CACGATGA | 0.0569
ACGTACGA | -0.0743
ATGGCGAG | -0.0172
CAGCCGTA | -0.132
ACCCTCCT | -0.00559
GATTGAGC | 0.00535
CAGTAGCA | -0.104
AATCAGGC | 0.0463
GTTAAAGA | 0.0582
ATACCAGA | 0.0337
ACCAGACG | -0.174
GGTGCAAA | -0.05
GGGCCGGA | -0.0748
AACCGCTG | -0.0535
AATACCAG | 0.0671
CCAAACAC | 0.137
GCGTGGGA | -0.173
AAGACCTG | -0.147

Sequence | PBM E-score
AAAGCGAG | 0.175
GCATTCTA | 0.0698
CGAAAGGA | 0.126
AAAGCACG | 0.0339
CACCCCCA | -0.27
GCTCAACC | -0.0532
GAAATTGA | 0.12
AGTAAGAA | 0.113
AAGAGAAA | -0.0837
CTAGCTGA | -0.00193
AGTTATCC | -0.111
TGCGGGAA | 0.177
ACGTGTCC | -0.311
ACAACTCT | -0.0284
ACAACTGA | 0.293
CCCACACG | -0.0369
AGGTTTTG | 0.0633
CACCCCCG | 0.1
ACCGGTGA | -0.0973
GCCCTCCA | -0.0563
ATCTACCC | 0.121
CCATTACG | -0.105
